# Reference: the supplement of paper PMC11417369
# The other results are listed elsewhere or left out.
# Tested on: PfHDP1 homeodomain (GST-tagged)
# Experiment: gcPBM binding intensity (ln(normalized median fluorescence intensity)); higher = stronger DNA binding
# Outline: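 DNA-binding domains from P. falciparum, fused to GST and produced in E. coli, were put on an Agilent 4 × 180k double-stranded probe array for 1 h in 1× PBS holding 1% milk, 0.2 mg/ml BSA, 0.5% salmon testes DNA and 0.03% Triton X-100. Probes were primer-extended, 36 bp long and drawn from intergenic genomic regions, with negative controls included. After Alexa488 anti-GST antibody detection and a 488 nm scan, binding intensity was set as the highest Masliner-normalised natural-log median intensity across replicate spots of either probe orientation.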
row,Sequence,gcPBM binding intensity (ln)
1,AAAAAAAATAAAATGAATAAATAAGAATTACATATT [CACACA_negctrl_site863],6.16
2,CAAATATATGTTTTCACACACAAAAGAAATGAAACC [CACACA_site2162],6.44
3,AATATATATATACATACATGCATACATATATATATA [TGCATGCA_site784],8.99
4,GGATAGATCATTTACACACACAAAAAAAAAAAAAAA [CACACA_site2139],6.41
5,ATAATATATTATTATAGTACTTTATTTTATTTTATG [XGTACX_site2387],6.65
6,AATATATTTATATAGTGTACATTTTTTATATATGTA [XGTACX_site8142],6.48
7,TATTAATTTTTATTATGTACATAAATAATTTATATT [XGTACX_site5456],6.03
8,TTGTATAAATATGTATGTATATAATATATGTAAAGA [TGCATGCA_negctrl_site93],6.73
9,CACATACACATACACATACACACGCATAGAAACATA [CACACA_site2136],8.06
10,AAATCGTGTACATTGACACACATAATTTTTTTTATA [CACACA_site2463],6.28
11,ATATGATGTAAAAGCACACATATATATATATATATA [CACACA_site4018],9.49
12,TACTATAAAATGGAATGTACACATAAATATATCTAA [XGTACX_site6137],6.51
13,GTTTATAACTATGTGTGTACACATTAATCGTTTTTC [XGTACX_site4364],7.18
14,TTCAGCATAAACACTTGTACATATATACTAAAAATT [XGTACX_site7272],6.31
15,AAAAAAAAAAAACACACACACACACCGAAATATATA [CACACA_site4261],6.74
16,AATTTTTTTTTTTTTTTTTCTTTTGTAATAAACCAT [XGTACX_negctrl_site334],6.1
17,ATTATATTTTTAAGTACACACATATAAATAAATATA [CACACA_site7682],6.45
18,TATTAATTATTTTACTGTACTAATAATACTTTTATT [XGTACX_site2179],6.48
19,ATTATGTGAGGTAACTAAATATGTACGTAACGAAGA [CACACA_negctrl_site1400],7.04
20,ATATATATATATGTGTGTACTTAAAAATATAATGCA [XGTACX_site7753],8.96
21,TAATGTATAATTAATCGTACATTAGATTGTTGTGTT [XGTACX_site52],6.27
22,ATTTCCCCAACGTGGGTGCATATATTTATGTGTGAA [GTGCAC_site9439],8.97
23,CGTTGTAGGGAATGTAGTACAGTTATTATTTTATTA [XGTACX_site2429],6.22

row,Sequence,gcPBM binding intensity (ln)
1,TATATATATAAATACACACACACACCGATATATATA [CACACA_site5408],7.37
2,TCATACATTTTCAGCCTGCACTTATATTTAATAATA [GTGCAC_site9863],7.25
3,ATATATATATATTATACACACGCCGAAAAAATAAAA [CACACA_site1551],8.36
4,TTTATTTTATCTAAAAGTACTTAAATTAGTGTATTT [XGTACX_site5696],6.18
5,TTACGAAAAAACAAGAGTACATGATGTTATAAAATA [XGTACX_site1412],6.52
6,TATCAAATCCAAAGGGGTACATTTTGTTGTCCTAAT [XGTACX_site5575],6.17
7,TAGCTCGTTCGGAGCACACACATATAAATAAATATA [CACACA_site7002],6.63
8,AATACTCTATTTTATAGTACATATATTATTAATCAC [XGTACX_site6622],6.37
9,GAAAAAAAAAAAAATACACACAAATTGGTATATAAT [CACACA_site4369],6.13
10,TAGGGATTATACCACACACACATACCCATAAATATA [CACACA_site5719],6.64
11,ATAGACAGCGCACAAACACACAAACACGCACGCACA [CACACA_site6349],8.06
12,TTTTTACTAATAAGATGTACATATATCCTAAGCATA [XGTACX_site251],6.42
13,TTTCGTAAACAAATTTGTACGTACAAATTTATAAAT [XGTACX_site8175],6.73
14,ATAATATAATAAACGTGTACACAATTAAATTATTAT [XGTACX_site3491],6.5
15,TCTTTTATTAGTAAAAGTACTTATATAAATATTATA [XGTACX_site5099],6.27
16,TACATACATACATACACACATACATATATATATATA [CACACA_site1387],9.05
17,TGTTTTTTATTTAATTGTACGAATTAAAAAAAATAA [XGTACX_site3009],6.39
18,TTCCAACCATAGTATTCACACATTGTTTTATTCCAT [CACACA_site4927],6.7
19,AATATTCATATGCAGGTGCATTAATTTTTATTAATT,10.2
20,CAAATTTTTTATTAAACACACAAACATATATTTATA [CACACA_site6992],6.4
21,AAAAAAGAAAAGAAATCATGAAAGAATCAAATAAAG [CACACA_negctrl_site1771],6.31
22,TTTTTATATATATTCTCACACACTTTTTATTTTAAC [CACACA_site657],6.85
23,TAAGGAAAAAATTATAGTACATAATAAATGTATATA [XGTACX_site8328],6.15

row,Sequence,gcPBM binding intensity (ln)
1,ATAAATATATTTCACGCACACACACCCCAAATAAAT [CACACA_site9272],7.73
2,CATAATATATTTTATGCATGCAAAGCAACCTTTTGA [TGCATGCA_site715],6.41
3,TTTTTTGTTATATTTGTGCGCAAAAATTGCTGCTTG,8.97
4,TATTAACAAAATTTTTAACACACAAAAAAAAAAAAA [CACACA_site8542],6.18
5,TATTTATTTAAAGGCACACATATTTTTATACTTTCT [CACACA_site3163],6.27
6,ATTATATATATATATAAACACACATAAATATAAATA [CACACA_site8291],6.59
7,AAAATTTATGTAAAATGTACATACATAAATAAAGAT [XGTACX_site4339],7.11
8,GTTTCCTTAATATTCACACACATATATATAATATAT [CACACA_site1856],7.1
9,ATGTTATAAGATTTATGTACACACATATACACACCT [XGTACX_site1316],7.18
10,TATATATAATATATATGTACGTATATATATAATATA [XGTACX_site8383],6.4
11,TTAACATAAATATATACACACCAATGATGGCATTTA [CACACA_site4952],6.37
12,AATAAAGCAATAAATACACACATATTTATATTTATA [CACACA_site7390],6.65
13,TTTATTTTCCAAAGGGTGCACATAGTTGAAACGATA,9.41
14,TTTTGGATTGAGGACCTTTTTATAGAATTATGTTTT [TGCATGCA_negctrl_site544],6.55
15,ATATATAATTTTTACACACGCAATAAATATATATAT [CACACA_site4283],7.7
16,TTTATTTATTACTAAAGTACTAAATCATATTATTAT [XGTACX_site2574],5.91
17,ATGAACAAGTGGCACACACACATTATAACTAATTTA [CACACA_site5731],6.38
18,TTCTTTTTTTTTATCACACATATTACAATCTAGTGC [CACACA_site4697],7.13
19,AAAATAATATTTCCTTGTACACATATGTATTTGTTC [XGTACX_site4430],7.1
20,TTTTCATAATATACATGTACATATATAAATTATTAA [XGTACX_site5206],6.41
21,GTATACATGCAAATTTTTATTTACAACCCCAAAAAG [XGTACX_negctrl_site255],7.05
22,TATTATAATATGCCTTGTACATATAACAAATTTATT [XGTACX_site108],6.43
23,TTTTTTTCACAAAATACACACAATATATTTTATATC [CACACA_site1138],6.66

row,Sequence,gcPBM binding intensity (ln)
1,ATCTTTTCATATTGCTGTACAAATTATTTTCATTCG [XGTACX_site492],7.26
2,TTAATATTAATTATATGTACATATAATATATATATA [XGTACX_site1757],8.29
3,ATGTTAAACAAATCTATACACACGTATATGACAAAA [CACACA_site1783],6.53
4,GAGAAATGGAGACACACACACATATTATATATATAT [CACACA_site1532],8.68
5,TGTATAAAATTCCATTGTACATATTATTTTACGACA [XGTACX_site7764],6.14
6,AAAAGTCTTCAAATTTGTACATATATATATATATAT [XGTACX_site3404],9.29
7,GGTACATACAGACACACACACAAAAAAAAAAAAATA [CACACA_site6844],6.63
8,ATAAAAAAAAAAAGAAGTACATGTATTAAAATTTAT [XGTACX_site3927],6.89
9,AACAAAGGATTTATATATACATACATACATACATAA [GTGCAC_negctrl_site469],6.31
10,TGAATTTACAAAATCATGCACTTAATTACAGAATAA,7.61
11,GCAAATCTTATATGAAGTACATATCTTATAAATAAA [XGTACX_site6903],6.14
12,TTTATTATATTTTTTTGTACATATTGATGTATATAA [XGTACX_site6527],6.57
13,AGCAAAATGAAATAAATTGGAAAATATTACTGAACG [CACACA_negctrl_site1433],6.35
14,CGAACACAAACACAAACACACATCATATATATATAT [CACACA_site4857],9.06
15,ATTTTGGAAATAATATGTACATATACATAATATATA [XGTACX_site4177],6.47
16,AATATACAAAAAAAAAAAAAAAAAAAAAAGATGGAA [TGCATGCA_negctrl_site550],6.03
17,ATTCATATGAAACACACACACACACCCATAAAAAAA [CACACA_site3246],7.04
18,TTTTTTTTTTTTTACACACACAAAATATTATAGGTA [CACACA_site7209],6.73
19,ATTTTTTACATACTCAAATGTTTTAATTTTTTATAT [CACACA_negctrl_site1213],6.57
20,TCTTTTCAATTTTATATGATCTTAATATTTTATGAA [GTGCAC_negctrl_site294],6.24
